Results published in PubChem BioAssay (Tox21).
Values joined by “and” are separate entries in the source; they are usually repeats but may differ in a detail not shown here. Equal values may be shown once. This list was built around the results that the source calls inconclusive (neither active nor inactive); the mix of calls is not that of the screen. For some of these results: Where the call is inconclusive, the potency comes from a doubtful curve fit. Active and inactive are the calls of the source. Unless noted, the call rests on the fitted dose curve; in most records, active means well fitted curve in the direction sought with a large enough effect in the repeat runs; inconclusive means weak or mixed curves; inactive means no such curve, though single readings can be large; an effect the other way counts as inactive or inconclusive.

Experiments:
[1] = target: Peroxisome proliferator-activated receptor gamma (Homo sapiens) (UniProt P37231); test: qHTS assay to identify small molecule antagonists of the peroxisome proliferator-activated receptor gamma (PPARg) signaling pathway (AID 743191; calls by dose curve; further: nearly all actives have a fitted effect of over 30% in size; further: potency means the concentration at half of the fitted maximal effect; on ratio activity, negative = inhibition: on the % scale 0 is the no-effect control and ±100 the full control effect); details: HEK293H PPARg-UAS-bla, beta-lactamase ratio, antagonist, 17 h; ratio activity, negative = inhibition: at 62.6 µM (top of the series) unless noted
Procedure, shortened: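 GeneBLAzer PPARg UAS-bla HEK293H cells, 5 h post-plating, exposed to compounds 17 h at 37C. LiveBLAzer B/G FRET substrate added for 1 h at room temperature; beta-lactamase reporter read by fluorescence intensity.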

[2] = qHTS assay to identify small molecule antagonists of the peroxisome proliferator-activated receptor gamma (PPARg) signaling pathway - cell viability counter screen (AID 743194); details: PPARg-bla HEK293H viability, CellTiter-Glo luminescence, 17 h; Potency: co-treated with 50 nM rosiglitazone unless noted; activity change, negative = cytotoxicity: at 62.6 µM (top of the series), co-treated with 50 nM rosiglitazone unless noted; further: nearly all actives have a fitted effect of over 55% in size; further: potency means the concentration at half of the fitted maximal effect; on activity change, negative = cytotoxicity: on the % scale 0 is the no-effect control and ±100 the full control effect
Procedure, shortened: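 Cytotoxicity counter screen in PPARg-bla HEK293H cells, same wells as reporter assay. Compounds plus 50 nM rosiglitazone (final) for 17 h at 37 C, then viability read by CellTiter-Glo luminescence.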

[3] = qHTS assay for small molecule agonists of the antioxidant response element (ARE) signaling pathway (AID 743202; active means well fitted activation curve with a large enough effect in the signal ratio in the repeat runs, not every such curve was filed as active; inconclusive means weak or mixed curves, or effect the other way; inactive means no such curve, though single readings can be large or run the other way; the % refers to the signal ratio; further: potency means the concentration at half of the fitted maximal effect; on activation: on the % scale 0 is the no-effect control and ±100 the full control effect); details: HepG2 ARE-bla reporter, beta-lactamase FRET, 16 h; activation: at 73.3 µM (top of the series) unless noted
Procedure, shortened: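 ARE-bla HepG2 cells (beta-lactamase reporter under the antioxidant response element), plated 5 hours, then exposed to compounds 16 hours at 37 C. LiveBLAzer B/G FRET substrate added for 2 hours at room temperature; fluorescence intensity read.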

[4] = target: Vitamin D3 receptor (Homo sapiens) (UniProt P11473); test: qHTS assay to identify small molecule antagonists of the vitamin D receptor (VDR) signaling pathway (AID 743223; active means well fitted inhibition curve with a large enough effect in the signal ratio in the repeat runs, not every such curve was filed as active; inconclusive means weak or mixed curves, or effect the other way; inactive means no such curve, though single readings can be large or run the other way; the % refers to the signal ratio; further: potency means the concentration at half of the fitted maximal effect); details: VDR-UAS-bla HEK293T, beta-lactamase FRET ratio, 16 h; activity change, negative = inhibition: at 61 µM (top of the series) unless noted
Procedure, shortened: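 Beta-lactamase reporter read-out: FRET substrate fluorescence after 2 h at room temperature, following 16 h exposure of VDR-bla cells to test compound plus 3 nM (final) 1alpha,25-dihydroxyvitamin D3 agonist at 37C.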

[5] = qHTS assay to identify small molecule agonists of the farnesoid-X-receptor (FXR) signaling pathway - cell viability counter screen (AID 743218); details: FXR-bla HEK293T viability, CellTiter-Glo luminescence, 16 h; viability change, negative = cytotoxic: at 62.6 µM (top of the series) unless noted; further: potency means the concentration at half of the fitted maximal effect; nearly all actives have a fitted effect of over 45% in size
Procedure, shortened: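 FXR-UAS-bla HEK 293T cells exposed to compounds for 16 h at 37C. Cytotoxicity read in the same wells by CellTiter-Glo luminescence after 30 min at room temperature, following the beta-lactamase FRET read.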

[6] = qHTS assay to identify small molecule antagonists of the vitamin D receptor (VDR) signaling pathway - cell viability counter screen (AID 743225); details: VDR-bla HEK293T viability, CellTiter-Glo luminescence, 16 h; viability change, negative = cytotoxic: at 61 µM (top of the series) unless noted; further: potency means the concentration at half of the fitted maximal effect; nearly all actives have a fitted effect of over 50% in size
Procedure, shortened: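 Viability counter screen run in the same wells as the beta-lactamase reporter assay: HEK 293T VDR-UAS-bla cells, 16 h compound exposure at 37C with 3 nM (final) 1-alpha,25-dihydroxyvitamin D3. CellTiter-Glo luminescence, 30 min, room temperature.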

[7] = qHTS assay for small molecule activators of the heat shock response signaling pathway (AID 743210; active means well fitted activation curve with a large enough effect in the signal ratio in the repeat runs, with a control signal flat, not every such curve was filed as active; inconclusive means weak or mixed curves; the % refers to the signal ratio; further: potency means the concentration at half of the fitted maximal effect); details: HeLa HSE-bla reporter, beta-lactamase ratio, 5 h; activation: at 62.6 µM (top of the series)
Procedure, shortened: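 HSE-bla HeLa cells (beta-lactamase reporter under heat shock response elements), plated overnight, then exposed to compounds 5 h at 37 C; LiveBLAzer B/G FRET substrate added, 2.5 h at room temperature, fluorescence intensity read.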

[8] = qHTS assay to identify small molecule agonists of the peroxisome proliferator-activated receptor delta (PPARd) signaling pathway - cell viability counter screen (AID 743211); details: PPARd-bla HEK293H viability, CellTiter-Glo luminescence, 17 h; activity change, negative = cytotoxicity: at 62.6 µM (top of the series) unless noted; further: potency means the concentration at half of the fitted maximal effect; nearly all actives have a fitted effect of over 55% in size
Procedure, shortened: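 Read-out: CellTiter-Glo luminescence, 30 min RT, measured in the same wells as the beta-lactamase reporter. Cells: GeneBLAzer PPAR delta UAS-bla HEK293H, 3000 cells/well, compound exposure 17 h at 37C.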

[9] = qHTS assay to identify small molecule antagonists of the peroxisome proliferator-activated receptor delta (PPARd) signaling pathway - cell viability counter screen (AID 743213); details: PPARd-bla HEK293H viability, CellTiter-Glo luminescence, 17 h; viability change, negative = cytotoxic: at 62 µM (top of the series) unless noted; further: potency means the concentration at half of the fitted maximal effect; nearly all actives have a fitted effect of over 50% in size
Procedure, shortened: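 Same-well viability: cells pre-incubated 5 h, dosed with compound plus 300 nM L165041, kept 17 h at 37 C, FRET substrate 2 h RT, then CellTiter-Glo 30 min RT and luminescence.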

[10] = target: Bile acid receptor (Homo sapiens) (UniProt Q96RI1); test: qHTS assay to identify small molecule antagonists of the farnesoid-X-receptor (FXR) signaling pathway (AID 743217; active means well fitted inhibition curve with a large enough effect in the signal ratio in the repeat runs, not every such curve was filed as active; inconclusive means weak or mixed curves, or effect the other way; inactive means no such curve, though single readings can be large or run the other way; the % refers to the signal ratio; further: potency means the concentration at half of the fitted maximal effect); details: HEK293T FXR-UAS-bla, beta-lactamase ratio, CDCA-stimulated, 16 h; activity change, negative = inhibition: at 62.6 µM (top of the series) unless noted
Procedure, shortened: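 FXR-UAS-bla HEK 293T cells (beta-lactamase reporter) given compound plus chenodeoxycholic acid (50 uM final), 16 h at 37C. LiveBLAzer B/G FRET substrate added for 2 h at room temperature; fluorescence read.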

[11] = target: Bile acid receptor (Homo sapiens) (UniProt Q96RI1); test: qHTS assay to identify small molecule agonists of the farnesoid-X-receptor (FXR) signaling pathway (AID 743220; active means well fitted activation curve with a large enough effect in the signal ratio in the repeat runs, not every such curve was filed as active; inconclusive means weak or mixed curves, or effect the other way; the % refers to the signal ratio; further: on the % scale 0 is the no-effect control and ±100 the full control effect); details: HEK293T FXR-UAS-bla, beta-lactamase FRET ratio, 16 h; activation: at 62.6 µM (top of the series) unless noted
Procedure, shortened: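 Beta-lactamase reporter under UAS control in GeneBLAzer FXR HEK 293T cells (5000/well) measured with LiveBLAzer FRET substrate after 2 h at room temperature. Compound exposure lasted 16 h at 37C.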

[12] = qHTS assay for small molecule activators of the heat shock response signaling pathway - cell viability counter screen (AID 743209); details: HSE-bla HeLa viability, CellTiter-Glo luminescence, 5 h; activity change, negative = cytotoxicity: at 62.6 µM (top of the series) unless noted; further: potency means the concentration at half of the fitted maximal effect; nearly all actives have a fitted effect of over 50% in size
Procedure, shortened: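 HSE-bla HeLa cells plated overnight, then exposed to Tox21 compounds (23 nL in DMSO) for 5 h at 37 C. After the bla reporter read, CellTiter-Glo was added in the same wells and luminescence read after 30 min at room temperature.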

[13] = target: Vitamin D3 receptor (Homo sapiens) (UniProt P11473); test: qHTS assay to identify small molecule agonists of the vitamin D receptor (VDR) signaling pathway (AID 743222; calls by dose curve; further: potency means the concentration at half of the fitted maximal effect); details: HEK293T VDR-UAS-bla, beta-lactamase FRET ratio, 16 h; activation: at 63.5 µM (top of the series) unless noted
Procedure, shortened: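 VDR-bla cells plated 4 h at 37 C, then exposed to compounds for 16 h at 37 C. Beta-lactamase reporter activity measured by fluorescence after 2 h room-temperature loading with LiveBLAzer B/G FRET substrate.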

[14] = qHTS assay for small molecule agonists of the antioxidant response element (ARE) signaling pathway - cell viability counter screen (AID 743203; calls by dose curve; further: potency means the concentration at half of the fitted maximal effect; nearly all actives have a fitted effect of over 55% in size)
Procedure, shortened: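 ARE-bla HepG2 cells were plated, rested 5 h at 37C/5% CO2, then exposed to compounds in DMSO for 16 h. Viability was read as CellTiter-Glo luminescence after 30 min at room temperature, in the same wells as the ARE screen.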

[15] = target: Peroxisome proliferator-activated receptor delta (Homo sapiens) (UniProt Q03181); test: qHTS assay to identify small molecule antagonists of the peroxisome proliferator-activated receptor delta (PPARd) signaling pathway (AID 743215; active means well fitted inhibition curve with a large enough effect in the signal ratio in the repeat runs, not every such curve was filed as active; inconclusive means weak or mixed curves, or effect the other way; inactive means no such curve, though single readings can be large or run the other way; the % refers to the signal ratio;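 further: cells stimulated with agonist L165041 at 300 nM final during compound exposure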; further: potency means the concentration at half of the fitted maximal effect); details: HEK293H PPARd-UAS-bla, beta-lactamase FRET ratio, antagonist, 17 h; ratio activity, negative = inhibition: at 62 µM (top of the series) unless noted
Procedure, shortened: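 PPARd-bla HEK293H cells (UAS-bla reporter) preincubated 5 h, then given compound plus 300 nM final L165041 agonist for 17 h at 37 C. Beta-lactamase activity read by LiveBLAzer B/G FRET substrate fluorescence after 2 h at room temperature.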

[16] = qHTS assay to identify small molecule agonists of the vitamin D receptor (VDR) signaling pathway - cell viability counter screen (AID 743224); further: potency means the concentration at half of the fitted maximal effect; nearly all actives have a fitted effect of over 50% in size
Procedure, shortened: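 VDR-bla cells, 4 h after plating, exposed to compounds for 16 h at 37C; viability then read in the same wells as CellTiter-Glo luminescence after 30 min at room temperature, following the bla FRET read.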
Tags describe the fitted curve by direction and shape or compound fluorescence and quenching.

Sequence of UniProt Q03181 (Q03181 whole entry, looked up): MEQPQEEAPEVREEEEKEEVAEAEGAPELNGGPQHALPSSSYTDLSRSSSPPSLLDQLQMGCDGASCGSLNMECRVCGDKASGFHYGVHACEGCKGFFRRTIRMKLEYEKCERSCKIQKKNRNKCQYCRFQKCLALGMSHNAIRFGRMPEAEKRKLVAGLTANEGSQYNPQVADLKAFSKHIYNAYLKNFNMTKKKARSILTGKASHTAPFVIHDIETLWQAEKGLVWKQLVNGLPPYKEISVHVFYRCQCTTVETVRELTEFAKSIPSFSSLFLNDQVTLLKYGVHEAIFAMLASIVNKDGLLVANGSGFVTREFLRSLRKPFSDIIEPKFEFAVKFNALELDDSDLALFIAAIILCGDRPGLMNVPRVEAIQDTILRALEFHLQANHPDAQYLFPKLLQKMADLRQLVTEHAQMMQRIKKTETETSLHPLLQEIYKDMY
Sequence of UniProt P37231 (P37231 whole entry, looked up): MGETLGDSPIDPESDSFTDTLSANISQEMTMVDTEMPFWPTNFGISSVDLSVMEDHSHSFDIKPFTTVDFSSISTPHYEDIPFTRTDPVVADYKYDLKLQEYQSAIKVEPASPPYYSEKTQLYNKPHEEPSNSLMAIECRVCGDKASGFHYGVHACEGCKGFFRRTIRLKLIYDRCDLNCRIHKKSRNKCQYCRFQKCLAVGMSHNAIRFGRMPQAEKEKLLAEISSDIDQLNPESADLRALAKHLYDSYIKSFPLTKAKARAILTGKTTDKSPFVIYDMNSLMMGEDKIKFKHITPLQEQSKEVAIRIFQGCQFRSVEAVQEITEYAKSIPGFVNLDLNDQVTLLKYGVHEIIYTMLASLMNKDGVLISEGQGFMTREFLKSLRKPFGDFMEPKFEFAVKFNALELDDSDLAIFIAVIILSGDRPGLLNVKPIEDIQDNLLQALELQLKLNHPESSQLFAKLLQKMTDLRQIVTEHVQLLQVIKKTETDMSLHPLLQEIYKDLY
Sequence of UniProt P11473 (P11473 whole entry, looked up): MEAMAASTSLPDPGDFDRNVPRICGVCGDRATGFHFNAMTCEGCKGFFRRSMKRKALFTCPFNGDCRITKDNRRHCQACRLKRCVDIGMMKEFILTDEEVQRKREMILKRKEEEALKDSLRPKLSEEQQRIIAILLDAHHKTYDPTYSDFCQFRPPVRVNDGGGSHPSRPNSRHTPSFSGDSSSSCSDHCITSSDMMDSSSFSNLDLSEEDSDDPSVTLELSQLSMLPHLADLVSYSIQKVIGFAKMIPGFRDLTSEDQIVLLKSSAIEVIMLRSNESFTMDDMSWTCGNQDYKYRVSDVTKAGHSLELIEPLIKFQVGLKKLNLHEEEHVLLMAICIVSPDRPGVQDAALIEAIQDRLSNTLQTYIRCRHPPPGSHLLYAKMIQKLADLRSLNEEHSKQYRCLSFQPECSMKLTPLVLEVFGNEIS
Sequence of UniProt Q96RI1 (Q96RI1 whole entry, looked up): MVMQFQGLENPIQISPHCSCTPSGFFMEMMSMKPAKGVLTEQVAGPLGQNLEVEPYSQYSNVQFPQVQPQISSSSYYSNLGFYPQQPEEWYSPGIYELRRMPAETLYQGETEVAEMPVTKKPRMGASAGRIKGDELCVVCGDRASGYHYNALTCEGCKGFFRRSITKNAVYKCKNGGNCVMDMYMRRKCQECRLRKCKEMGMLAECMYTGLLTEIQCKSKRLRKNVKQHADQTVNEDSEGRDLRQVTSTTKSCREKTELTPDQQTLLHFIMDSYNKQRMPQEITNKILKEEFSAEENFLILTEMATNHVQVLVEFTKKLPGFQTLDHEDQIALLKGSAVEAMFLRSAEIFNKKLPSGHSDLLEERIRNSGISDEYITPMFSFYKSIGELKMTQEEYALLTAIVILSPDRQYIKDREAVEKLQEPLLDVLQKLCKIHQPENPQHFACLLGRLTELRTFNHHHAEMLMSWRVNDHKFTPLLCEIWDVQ

CCC(Cl)[N+](=O)[O-] (stereo not drawn)
ratio activity, negative = inhibition [1]: inconclusive: 11.6% [at 81.1 µM] | Potency [2]: inactive | Potency [3]: inactive | Potency [4]: inactive

Cc1ccc(N)cc1
Potency [1]: inactive | Potency [2]: inconclusive: 61.6 µM [cytotoxic, single point] | Potency [5]: inconclusive: 0.188 µM [rising, full curve, poor fit] | Potency [6]: inconclusive: 0.493 µM [cytotoxic, single point]

CC(C)Nc1ccc(Nc2ccccc2)cc1
Potency [1]: inconclusive: 54.7 µM [inhibitor] and inconclusive: 61.7 µM [inhibitor] | Potency [2]: inconclusive: 54.7 µM [cytotoxic, single point] and inconclusive: 49 µM [cytotoxic, partial curve, poor fit] | Potency [7]: inconclusive: 48.8 µM [activator, partial curve] and inconclusive: 61.7 µM | Potency [8]: inconclusive: 61.4 µM [cytotoxic, single point] and inconclusive: 54.9 µM [cytotoxic, single point] | Potency [9]: inconclusive: 61.4 µM [cytotoxic, single point] and active: 43.6 µM | Potency [10]: inconclusive: 54.7 µM [inhibitor] and inconclusive: 61.7 µM | Potency [5]: inconclusive: 48.8 µM [cytotoxic, single point] | Potency [11]: inactive | Potency [4]: inconclusive: 61.4 µM and inconclusive: 21.9 µM | Potency [6]: inconclusive: 54.7 µM [cytotoxic, single point] and active: 43.6 µM

OC(O)C(Cl)(Cl)Cl
Potency [1]: inactive | Potency [2]: inconclusive: 23.7 nM [cytotoxic, full curve, poor fit] [setting not given] | Potency [10]: inactive

CCCC(Cn1cncn1)c1ccc(Cl)cc1Cl (stereo not drawn)
Potency [1]: inconclusive: 61.6 µM [inhibitor, single point] | Potency [2]: inconclusive: 1.55 µM [cytotoxic, partial curve, poor fit] | Potency [3]: inconclusive: 30.6 µM [rising, partial curve] | Potency [12]: inconclusive: 24.5 µM [cytotoxic, partial curve, poor fit] | Potency [8]: inconclusive: 43.6 µM [cytotoxic, partial curve] | Potency [10]: inconclusive: 54.9 µM [inhibitor] | Potency [13]: inactive | activity change, negative = inhibition [4]: inconclusive: -10.9%

CCCCCOC(=O)c1ccccc1C(=O)OCCCCC
ratio activity, negative = inhibition [1]: inconclusive: -3.69% | Potency [3]: inactive

COP(=S)(Oc1cc(Cl)c(Br)cc1Cl)c1ccccc1 (stereo not drawn)
Potency [1]: inconclusive: 38.9 µM | Potency [2]: inconclusive: 54.9 µM [cytotoxic, partial curve, poor fit] | activation [3]: inconclusive: -21.2% | Potency [14]: active: 48.6 µM | Potency [15]: inconclusive: 61.6 µM [fluorescent, partial curve, poor fit] | Potency [10]: inconclusive: 24.5 µM [rising, partial curve, poor fit] | Potency [5]: inconclusive: 61.6 µM [cytotoxic, single point] | activation [11]: inconclusive: 5.97% | Potency [16]: active: 38.9 µM

CN=C=S
ratio activity, negative = inhibition [1]: inconclusive: 24.4% [at 81.1 µM] | Potency [2]: inconclusive: 35 µM [rising, partial curve, poor fit] | activation [3]: inconclusive: 10.9% [at 94.8 µM] | Potency [7]: inconclusive: 55.4 µM [activator, single point] | Potency [15]: inactive

Cl/C=C\C[N+]12CN3CN(CN(C3)C1)C2
Potency [1]: inconclusive: 61.6 µM [rising, partial curve, poor fit] | Potency [3]: inconclusive: 30.6 µM [rising, partial curve]

CC(Cc1ccc2c(c1)OCO2)NO (stereo not drawn)
Potency [1]: inactive | activation [3]: inconclusive: 6.15% [at 94.8 µM]

CSC1=N[C@@](C)(c2ccccc2)C(=O)N1Nc1ccccc1
Potency [1]: inconclusive: 19.5 µM [rising, full curve, poor fit] | Potency [2]: inconclusive: 19.5 µM [cytotoxic, partial curve, poor fit] | Potency [3]: inconclusive: 2.17 µM [rising, full curve] | Potency [7]: inactive | ratio activity, negative = inhibition [15]: inconclusive: -29.3% | activity change, negative = inhibition [10]: inconclusive: -37.7% | Potency [5]: inconclusive: 0.0549 µM [rising, full curve, poor fit] | Potency [13]: inactive | Potency [16]: inconclusive: 7.76 µM [cytotoxic, full curve] | Potency [6]: inconclusive: 11 µM [cytotoxic, full curve, poor fit]

CN(C)N=O
Potency [1]: inconclusive: 54.7 µM | Potency [2]: inactive | Potency [3]: inactive | Potency [4]: inactive | Potency [6]: inconclusive: 13.8 µM [cytotoxic, partial curve, poor fit]

COP(=S)(OC)Oc1ccc(Sc2ccc(OP(=S)(OC)OC)cc2)cc1
Potency [1]: inconclusive: 61.6 µM [cytotoxic, partial curve, poor fit] and inconclusive: 33.5 µM [cytotoxic] | Potency [2]: inconclusive: 33.5 µM [cytotoxic, single point] | Potency [3]: inconclusive: 30.6 µM [rising, full curve] | Potency [7]: inconclusive: 12.3 µM [falling, full curve] and inconclusive: 211 nM [rising, full curve] | ratio activity, negative = inhibition [15]: inconclusive: -1.75% | Potency [13]: inconclusive: 54.9 µM [fluorescent, single point] | activity change, negative = inhibition [4]: inconclusive: -2.16% | Potency [16]: inconclusive: 24.5 µM [cytotoxic, partial curve, poor fit] | Potency [6]: inconclusive: 21.9 µM [cytotoxic, partial curve, poor fit]
